Our source for the self-cleavage values is the RNAGym collection of RNA variant scans (doi:10.7554/elife.90254).

Read counts are not given, so values of variants with three or more changes are uncertain.

B1: LINE1-full (parent)
chain: UACGUAGGUGGUUUUCCCCUGAUAGUGCUAAGGGGGCCUGGAAGUUUGGACUGGGCAGAGCUCAACACAGCGUGGCAAAGUGGCUGUGGCUAGACUGCCUCUCUGGAUUCCUCGUCACUCAGCAGGGCAUCUCUGAGAGAAAUGCC

The series covers variants of B1. Kind of series: self-cleavage, relative activity (ratio to wild type); higher = more cleavage; in vitro, sequencing; the parent is a self-cleaving ribozyme.
Consider A43G U81C U87C, for which the self-cleavage was determined as 0. As for A43G A79G G93C, the self-cleavage is 0.03.

As for U45C U112C A129G U132A, the self-cleavage is 1.72. Under A43G U96A C110A stands 0.08.

Consider A43G U52A A64U A94G C133U, for which the self-cleavage amounted to 0.12.

Regarding A43G A117G U132C, the self-cleavage came to 1.23. Under U46C A64U U102A stands 0.51; under U46A C76G C101U C120A A129G, 2.21; under A43U U100A A129G, 1.01. Under A43G A57U G135A A142C stands 0.08.

On to U45A U109A A138G, for which the self-cleavage came to 2.04. The figure for U46C A78U G114A is 2.55. Under A43G U115C A117U A141G stands 0.77; under A43G U46A U109C A142G, 0.69. On to U45G U47C U62C U100A A107U, for which the self-cleavage amounted to 0. Under A43G U96C U102C stands 0.34. Take A43U U47C A65G: the self-cleavage is 0.11.

Turning to U45A U91C U143A, the self-cleavage amounted to 0.63.

Turning to U45C U62C A65U, the self-cleavage was 0.05. In the case of U46C A78G U87A, the self-cleavage stood at 0.22. Under A43G A65U U119A U132A stands 0.27. The figure for A43G U81A A138G is 0.79; for U45A G83A U87A U91C it is 0.07. The figure for A43U U62A U143C is 0.05; for U45A A59G U73C A78G G114A it is 0.07; for U46A U73A C116A it is 1.12.

For the variant A43G U73C G86A, the self-cleavage came to 0.1.

For G44A U109C U143A, the self-cleavage was 0.99.

As to U45C A79G U134C G144U, the self-cleavage was 1.53.

On to A43G U46C U100C, for which the self-cleavage was 2.04. In the case of U45C A117G U130C, the self-cleavage turned out to be 1.84. Under U45G C66U G74A G82A stands 0.03; under U46C A79G G106U A141G A142G, 1.79; under A43G U73A G93U, 0. Consider U45A U52C A77G C120U, for which the self-cleavage was found to be 1.46. Under U46C A67G A140G stands 0.88; under U46A A77U U143C, 1.19; under A43G A79U C145U, 1.15. The figure for U46C A69G U109C is 0.22. Under A43U A77U U85C U109C stands 0.19; under A43U A124G A142G, 0.86.

In the case of U45C A67C U73C A77U, the self-cleavage was 0. The figure for A43G U85C A140U is 0.35; for A43U A140G A142C it is 0.9. The figure for G44A A59G A94G is 0.14. Under A43G A77U U87A stands 0.05; under A43G U46C U81C A140G, 2.12. For the variant U45C A136G A140G, the self-cleavage was 1.72. Regarding U45C U47A U100C U130A A141G, the self-cleavage turned out to be 1.97. For the variant A43G U47A G97A, the self-cleavage came to 0.04.

Consider U46C A77G U134C, for which the self-cleavage was determined as 1.81. Under U45G C71G U112A stands 0.27; under A43G A77U C101U A129U, 1.17.

As to U46C A64G U73A A138U, the self-cleavage was found to be 0.26. Under U45C U104C A141G stands 2.13; under U45G A59G U115C, 0.26. Under U45A A65G U104C C120U A141G stands 0.05; under U46C A69U C103A, 0.04. Under A43U G80A A94G stands 0.18. Turning to G44A G127A U143C, the self-cleavage is 1.62. Under A43G G44A U115A stands 0.97; under A43G U45C U46C G88U C116U, 0.06. The figure for U46C A64G A138G is 0.14. With U45C U47C U87A U100C A138G, the self-cleavage worked out at 0. Under U45C A117G A140G stands 2.92; under U45G A69G A117G, 0; under A43G A79G U91C U96A A124G, 0.

As for A43G U87C A124U, the self-cleavage was determined as 0.46. Turning to A43U U109C A117G A136U, the self-cleavage came out at 0.84. Under G44A U115C A129U A142G stands 2.61; under A43U U87A U143C, 0.04. Under A43U A94G A136U stands 0.3.

With U46C A57U U134C, the self-cleavage came out at 0.19.

On to U45C C56U C95U A138G, for which the self-cleavage was 0.07.

Regarding U45A G88A A121U, the self-cleavage worked out at 0.04. The figure for U45C U73C U130A is 0.53; for U45A C51A U73C it is 1.21; for U46C A78G G88A U134A it is 0.05. Consider U45C U87A A129G G137A, for which the self-cleavage amounted to 0.13. Under U45C U73A A136G stands 1.76; under U46A U85A U96C, 0.05. The figure for U45A A59G U96C is 0.11. For U45C A64U U87A C128U A140G, the self-cleavage was 0.03. For U45C G93A U109C, the self-cleavage is 0.12.

As to A43G A57U A65U, the self-cleavage is 0.12. U45C A117G A142G: the self-cleavage was 2.45. Under A43G U47A A65G U143C stands 0.14; under A43G U45C A67U U108A, 0.27; under U45C G82A G93U A138G, 0. The figure for A43U A57U A121G is 0.11. Consider U46A U100A A142G, for which the self-cleavage was determined as 0.7.

For the variant A43G U45C C61A, the self-cleavage stood at 0.06. Regarding U45C U108C G125A, the self-cleavage was 2.1.

U45A U73C A117U: the self-cleavage was determined as 1.73.

On to U46A A69U G88A, for which the self-cleavage amounted to 0.04. In the case of U45A C71A U96C, the self-cleavage amounted to 0.02. The figure for U45C A77G U102A A124C is 0. The figure for U45A A64G C76U is 0.17; for A43G A50U A77C it is 0.38; for U45C U62C U100C it is 0.

As for U46C A94U G106U, the self-cleavage is 0.31. The figure for U46A U96C U112C U130C U143C is 0; for A43G A79G U130C it is 1.04. As for A43G U46A A50G U62A A69G G72U G83A U108C U130C, the self-cleavage was 0.

In the case of U46C A57G U73A, the self-cleavage came to 0.61.

In the case of U46A A57G G72A, the self-cleavage was determined as 0.53. In the case of A43G G53A U132C, the self-cleavage is 1.11. The figure for U45C U119C A141U is 2.14; for G44U U46C A50C G89A A129G U143A it is 0.16.

As to A43G U52A U143A, the self-cleavage is 0.74. The figure for U45A U115C A142G is 1.55; for U46C A64G U143A it is 0.31; for G44U C118U A141G it is 0.6. The figure for A43G G48A U81A A140G is 1.36; for U45A A67G A77G it is 0.69; for U45C U46C A94U it is 0.4. On to A43G A57U G58A A121G, for which the self-cleavage was 0.06. The figure for U46C A57U A79G is 0.1; for A43G U45A A69G A117G U134C it is 0. The figure for A43G A57U A59G is 0.2; for U45C A59U U109C U112C A138G it is 1.1. The figure for U45C U85C U87G U112C A124U A140G is 0.71; for U45C U81A U96A A124G it is 0.13. For the variant G44A U115C A124G U132C, the self-cleavage came out at 1.1. Under A43U G60U U96A A117G stands 0.04; under U46C A57G A78G, 1.08; under A43G G88A A140U, 0.01. Under U45C U62G C84A U134A stands 0.02. Under U45G U46C U102A stands 1.84; under U46A A92G U100A C131A U132C A136G, 0.23. On to U45C A77U U112C G125A, for which the self-cleavage came to 1.41. Under U46C A79G U134C stands 0; under A43G U102C A142G, 0; under A43G U46C U134C, 1.15. With A43G C61U A69G, the self-cleavage is 0.02. Under A43G C56U U73C U104C stands 0.35; under U46C A77U U91C A121U, 1.31. The figure for U45A C84G U85A U100A A140U is 0.03.

In the case of U45C U112C C133A, the self-cleavage was 0. Under A43G A57G A79G U134C stands 0; under A43G U87C U104A, 0.08; under A43C U102C U109A, 1.35. Under G44A U45G A67G stands 0.31. As for U45C U100C U134A, the self-cleavage is 2.02.

Consider A43G G53A A67G A107G U119C U132C, for which the self-cleavage was 0. Under U45C U46C C56U G105A stands 0.26.

As for U45C U62A U143C, the self-cleavage was determined as 0.09. The figure for U45C U52A A57G U112C is 1.06; for A43G U46C A77U U134A it is 1.39. In the case of A43U A77U U85C, the self-cleavage amounted to 0.02.

A43G G75U A94G U100C: the self-cleavage was 0.14. The figure for U45A U87C U102C is 0; for A43G U112C C145A it is 1.59. As for A43U G53U A77U C84U, the self-cleavage turned out to be 0.08. The figure for U45C C68A A141G is 0; for U45C A78G A138G it is 2.12. Under A43G U62C A64G U130A stands 0; under U46A U115C U134A, 1.16; under U46C A77U A78G, 1.19. With U46A U52A G74U A136U, the self-cleavage was found to be 1.33. U46C A69U C71U A78U: the self-cleavage was 0.04. U46C A107U A117U: the self-cleavage came out at 1.3. The figure for U45C A136U G144A is 1.68; for U45A U62C C76A it is 0.01; for U46A A69U A141G it is 0.04. Under A43G A124U A140G stands 1.08; under U45C C63U U143A, 0.38.
